The source gives no read counts; variants with many changes may rest on few reads.
B1: CPEB3 Ribozyme (parent)
chain: UAACAGGGGGCCACAGCAGAAGCGUUCACGUCGCAGCCCCUGUCAGAUUCUGGUGAAUCUGCGAAUUCUGCUGUAUAUCUC

Variants of: B1
Assay: self-cleavage, relative activity (ratio to wild type); higher = more cleavage; in vitro, sequencing
In short: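 Relative activity was defined as the cleaved/total read fraction for a variant divided by the same fraction for the unmutated ribozyme. CPEB3 self-cleaving ribozyme libraries were made by rounds of error-prone PCR, barcoded, and transcribed in vitro with T7 RNA polymerase for 5 hours at 37°C, and cleavage ran through transcription plus a 15 min DNase I step before EDTA. Illumina sequencing of template-switched reverse transcripts gave the reads, and DNA sequencing mapped the barcodes. Averages come from three batches, using variants with at least 5 reads.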

Row | Variant | self-cleavage
1 | UAGCAGGGGGCCACAGCGGAAGCGUUCACGUCGCAGCCCCCGUCAGAUCCUGGUGAAUCUGCGAAUUCUGCUGUAUAUCUC [A3G A18G U41C U49C] | 0.49
2 | UAGCAGGGGGCCACAGCGGAAGCGUUCACGUCGCAGCCCCUGACAGAUUCUGGUGAAUCUGCGAAUUCUGCUGUAUAUCUC [A3G A18G U43A] | 0.63
3 | UAGCAGGGGGCCACAGCGGAAGCGUUCACGUCGCAGCCCCUGCCAGAAUCUGGUGAAUCUGCGAAUUCUGCUGUAUUUCUC [A3G A18G U43C U48A A77U] | 0.3
4 | UAGCAGGGGGCCACAGCGGAAGCGUUCACGUCGCAGCCCCUGUCAGACUCCGGUGAAUCUGCGAAUUCUGCUGUAUAUCUC [A3G A18G U48C U51C] | 0.35
5 | UAGCAGGGGGCCACAGCGGAAGCGUUCACGUCGCAGCCCCUGUCAGAUUCUGGCGAAUCUGCGAAUUCCGCUGUAUAUCUC [A3G A18G U54C U69C] | 1.16
6 | UAGCAGGGGGCCACAGCGGAAGCGUUCACGUCGCAGCCCCUGUCAGAUUCUGGUGAAUCUGCGAAUUCCGCUGUAUAUCUC [A3G A18G U69C] | 1.08
7 | UAGCAGGGGGCCACAGCUGUAGCGUUCACGUCGCUGCCCCAGUCAGAUUCUGGAGAAUCUGCGAGUUCUGCUGUAUAUCUC [A3G A18U A20U A35U U41A U54A A65G] | 0.08
8 | UAGCAGGGGGCCACAGCUGAGGCGUUCACGCCGCAGCCCCUGUCAGAUUCUGGUGAAUCUGCGAAUUCUGCUGUAUAUCUC [A3G A18U A21G U31C] | 0.1
9 | UAGCAGGGGGCCACAGCUGAGGCGUUCACGUCGCAGCCCCUGUCAGAUUCUGGCGAAUCUGCGUAUUCUGCUGUAUAUCUC [A3G A18U A21G U54C A64U] | 0.08
10 | UAGCAGGGGGCCACAGCUGAAGCGUUCCCGUCGCAGCCCCUGUCAGAUUCUGGUGAGUCUGCGGAUUCUGCUGUAUAUCUC [A3G A18U A28C A57G A64G] | 0.11
11 | UAGCAGGGGGCCACAGCUGAAGCGUUCACGUCGCGGCCCCUGUCAGAUUCUGGUGAAUCUGCGAAUUCUGCUGUAUAUCUC [A3G A18U A35G] | 0.83
12 | UAGCAGGGGGCCACAGCUGAAGCGUUCACGUCGCGGCCCCUGUCAGAUCCUGGUGAAUCUGCGAAUUAUGCUGUAUAUCUC [A3G A18U A35G U49C C68A] | 0.32
13 | UAGCAGGGGGCCACAGCUGAAGCGUUCACGUCGCAGCCCCUGUCGGAUCCUGGUGAAUCUGCGAAUUCCGCUGUAUAUCAC [A3G A18U A45G U49C U69C U80A] | 0.4
14 | UAGCAGGGGGCCACAGCUGAAGCGUUCACGUCGCAGCCCCUGUCGGAUUCUGGUGAAUCAGCGAAUUCUGCUGUAUAUCUC [A3G A18U A45G U60A] | 0.19
15 | UAGCAGGGGGCCACAGCUGAAGCGUUCACGUCGCAGCCCCUGUCAGAUUCUGGUGAGUCUGCGAAUUCAACUGUAUAUCAC [A3G A18U A57G U69A G70A U80A] | 0.37
16 | UAGCAGGGGGCCACAGCUGAAGCGUUCAUGUCGCAGCCCCUGUCAGGUUCUGGUGAAUCUGCGAUUCCUGCUGUAUAUCUC [A3G A18U C29U A47G A65U U67C] | 0.38
17 | UAGCAGGGGGCCACAGCUGAAGCGUUCACGUCGCAGCCACUGUCAGAUUCUGGUGAAUCUGCGAAUUCUGCUGUCUAUCUC [A3G A18U C39A A75C] | 0.12

Row | Variant | self-cleavage
18 | UAGCAGGGGGCCACAGCUGAAGCGUUCACGUCGCAACCCCUGUCAGAUUCUGGUGAAUCUGCGAAUUCUGCUGUAUAUCCC [A3G A18U G36A U80C] | 0.45
19 | UAGCAGGGGGCCACAGCUGAAGCGCUCACGCUGCAGCGCCCGUCAGAUUCUGGUGAAUCUGCGAAUUCUGCUGUAUAUCUC [A3G A18U U25C U31C C32U C38G U41C] | 0.09
20 | UAGCAGGGGGCCACAGCUGAAGCGUUCACGUCGCAGCCCCAGUCAGAUUCUGGUGAAUCUGCGAAUUCUGCUGUAUAUCUC [A3G A18U U41A] | 0.12
21 | UAGCAGGGGGCCACAGCUGAAGCGUUCACGUCGCAGCCCCCGUCUGAUUCUGGUGAAUCUGCGAAUUCUGCUGUAUAUCCC [A3G A18U U41C A45U U80C] | 0.47
22 | UAGCAGGGGGCCACAGCUGAAGCGUUCACGUCGCAGCCCCUGCCAGAUUCUGGUGAAACUGCGAAUUCUGCUGUAUAUCUC [A3G A18U U43C U58A] | 0.17
23 | UAGCAGGGGGCCACAGCAGCAGCGUUCGCGUCGCAGCCCCUGUCAGAUUCUGGUGAAUCUGCGAAUUCAGCUGUAUAUCUC [A3G A20C A28G U69A] | 0.32
24 | UAGCAGGGGGCCACAGCAGCAGCGUUCUCGUCGCAGCCCCUGUCAGAUUCUGGUGAAUCUGCGUAUUCUGCUGUAUAUCUC [A3G A20C A28U A64U] | 0.12
25 | UAGCAGGGGGCCACAGCAGGGGCGUUCACGUCGCAGCCCCAGGCAGAUUCUGGUGAAUCUGCGAAGUCUGCUGUGUAUCUC [A3G A20G A21G U41A U43G U66G A75G] | 0.08
26 | UAGCAGGGGGCCACAGCAGGAGCGUUCUCGUCGCAGCCCCUGUCAGAUUCUGGUGAAUCUGCGAAUUCUGCUGUAUAUCCC [A3G A20G A28U U80C] | 0.85
27 | UAGCAGGGGGCCACAGCAGGAGCGUUCACGUCGCUGCCCCUGUCAGAUUCUGGUGAAUCUGCGAAUUCUGCUGUAUAUCUC [A3G A20G A35U] | 0.69
28 | UAGCAGGGGGCCACAGCAGGAGCGUUCACGUCGCAGCCCCUGUCGGGUUCUGGUGAAUCUGCGAAUUCUGCUGUAUGUCUC [A3G A20G A45G A47G A77G] | 0.31
29 | UAGCAGGGGGCCACAGCAGGAGCGUUCACGUCGCAGCCCCUGUCGGAUUCUGGGGAAUCUGCGAAUUCUGCUGUAUAUCUC [A3G A20G A45G U54G] | 0.51
30 | UAGCAGGGGGCCACAGCAGGAGCGUUCACGUCGCAGCCCCUGUCAGAUUCUGGUGAGUCUGCGAAUUCUGCUGUAUAUCUC [A3G A20G A57G] | 0.87
31 | UAGCAGGGGGCCACAGCAGGAGCGUUCACGUCGCAGCCCCUGUCAGAUUCUGGUGAGUCCGCGAAUUCUGCUGUAUACCUC [A3G A20G A57G U60C U78C] | 0.34
32 | UAGCAGGGGGCCACAGCAGGAGCGUUCACGUCGCAGCCCCUGUCAGAUUCUGGUGAAUCUGCGGGUCCUGCUGUAUAUCUC [A3G A20G A64G A65G U67C] | 0.21
33 | UAGCAGGGGGCCACAGCAGGAGUGCUCACGUCGCAGCCUCCGUCAGAUUCUGGUGUAUCUGCGAAUUCUGCUGUAUAUCUC [A3G A20G C23U U25C C39U U41C A56U] | 0.06
34 | UAGCAGGGGGCCACAGCAGGAGCGUUCAUGUCGCAGCCCCUGUCAGAUUCUGGUGAAUCUGCGAAUUCUGCUGUUUAUCUC [A3G A20G C29U A75U] | 0.34

Source: the RNAGym collection of RNA variant scans (doi:10.1093/nar/gkz1192)
